Measured values reported in PubChem BioAssay AID1845204 (Molecular Pharmacology Branch, DTP, NCI, 2023).
Some entries of the source have several records that differ or are many. The list is limited to them. An entry can have further records. Values that stand side by side are repeated measurements (runs, samples, wells, individuals or studies).

System: HSSY-II tumor spheroid viability
Test: Anticancer human tumor HSSY-II cell line growth inhibition;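 also: spheroids exposed to compounds for seven days before reading; percent of DMSO vehicle control viability so 100% = untreated level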
Settings: stronger effect = lower value, spheroids with HUVEC and MSC
Text: Multicellular complex tumor spheroid response to DNA repair inhibitors in combination with DNA-damaging drugs
This study explores the anticancer activities of DNA-damaging drugs and inhibitors of DNA damage repair, both as single agents and in combinations. Complex tumor spheroids comprised of malignant cells, endothelial cells and mesenchymal stem cells served as an in vitro model for human solid tumors. This model system incorporates physiologically relevant features and patient-derived or established malignant cell lines with clinically relevant genetic alterations from many tumor types. Twenty-six patient-derived or established malignant cell lines were evaluated representing sarcoma, melanoma, small cell lung cancer (SCLC), non-small cell lung cancer (NSCLC), as well as bladder, ovarian and pancreatic cancers. The concentration ranges selected for each drug and investigational agent were based upon clinically achievable concentrations if the clinical Cmax of the agent was known.
Compounds. The drugs and compounds olaparib (NSC753686), talazoparib (NSC767125), berzosertib (NSC777718), elimusertib (NSC800525), nedisertib (NSC802822), VX-984 (NSC792969), AZD-1390 (NSC803789), temozolomide (NSC362856), topotecan (NSC609699), trabectedin (NSC813783), staurosporine (NSC755774), and gemcitabine (NSC613327) were obtained from the National Cancer Institute (NCI) Developmental Therapeutics Program Chemical Repository. The FDA-approved anticancer drug set is available from the Developmental Therapeutics Program at https://dtp.cancer.gov/organization/dscb/obtaining/available_plates.htm. […] The stock solutions were prepared in dimethyl sulfoxide (DMSO, Sigma-Aldrich, St. Louis, MO, cat. D2650) at 400-fold the tested concentration and stored at -70 degrees C. Prior to their use, the stock solutions were diluted in fresh medium and the final DMSO concentration in the assay was 0.25% (v/v). All drugs and investigational agents were tested over a range starting from a high concentration at or near the clinical Cmax and decreasing in half-log increments. If the clinical Cmax for an agent had not been determined, the highest concentration tested was 10 microM.
Cell Lines. The patient-derived cancer cell (PDC) lines: 156681-154-R-J1-PDC, 283228-195-R-J1-PDC, 287954-098-R-J1-PDC, 292921-168-R-J2-PDC, 349418-098-R-PDC, 425362-245-T-J1-PDC, 556581-035-R-J1-PDC, and BL0293-F563-PDC were received from the NCI Patient-Derived Models Repository (PDMR, https://pdmr.cancer.gov). The established cell lines HS-SY-2 (RRID:CVCL_8719), MPNST, and SYO-1 (RRID:CVCL_7146) were obtained from the Sloan Kettering Institute. The alveolar soft parts sarcoma cell line ASPS-1 (RRID:CVCL_S738) was established at the NCI and grown from internal seed stocks. […]

In the case of `O=C(c1cc(Cc2n[nH]c(=O)c3ccccc23)ccc1F)N1CCN(C(=O)C2CC2)CC1`, the viability, T/C (compound alone 30 µM) is reported as 44.5%, 7.95%, 12.2%.
`COc1cc2c(cc1O)CCNC21CSC2c3c(OC(C)=O)c(C)c4c(c3C(COC1=O)N1C(O)C3Cc5cc(C)c(OC)c(O)c5C(C21)N3C)OCO4` (centres undefined) was tested, and the viability, T/C (compound 30 pM) was 96.5, 98.3, 99.9, 95.7, 98.6, 97.2, 120, 193, 113, 138% and the viability, T/C (compound 94.9 pM) was 88.2, 88, 95.8, 82.2, 90.9, 90.4, 120, 117, 106, 119%.
In the case of `CC[C@@]1(O)C(=O)OCc2c1cc1n(c2=O)Cc2cc3c(CN(C)C)c(O)ccc3nc2-1`, the viability, T/C (compound alone 0.00949 µM) is reported as 44.7, 49.4, 64.4, 40.8, 41.3, 67.7, 54.8, 56.2, 61.5, 58.5%.
